The chains are these.
B1: OR4K15 (parent)
chain: GUUAACGGUCAUAGGCCAUGGAAACUAGGAGCACCAUUUCGCUGCCAGUGAAGAAAUGAACAAAGAAAAUCUGGGCCAGGCAGGCAUCAAAAGAAAUAGUCUUGCGCUCAACCAGAAAGUCUGUAAUCAUUUUAAGGGUA

Read counts are not given, so values of variants with three or more changes are uncertain.

The variants in the data set derive from B1. Put plainly: self-cleavage, relative activity (ratio to wild type); higher = more cleavage; in vitro, sequencing; the parent is a self-cleaving ribozyme.
Turning to A5G U43G A90G U108A, the self-cleavage was 0.05.

As to U9A U72C A111G, the self-cleavage turned out to be 0.05.

For G7A A23G A33C U43C A118C A126G U130C U139C, the self-cleavage was 0.57.

As for A5G U87C A114G, the self-cleavage came out at 0.17.

On to G7U U26A A67G, for which the self-cleavage was found to be 1.51.

Regarding G8A A63G A95U U103C A116G A129C, the self-cleavage worked out at 0.32.

In the case of A5U U70C A91U U103C, the self-cleavage came out at 0.35.

For the variant A5G U37C U87C, the self-cleavage stood at 1.01.

Take C6U A55G A67C: the self-cleavage is 0.94.

On to A5G U38C A118G U130C, for which the self-cleavage is 0.59.

In the case of G7A U9C U37C A55G U102C, the self-cleavage worked out at 1.65.

For G7A A18U A114U, the self-cleavage turned out to be 0.07.

As to G7A A54G A66G, the self-cleavage was found to be 2.43.

Consider G7U A90G A114U, for which the self-cleavage was found to be 0.

Consider C6A A66G A69U U124A, for which the self-cleavage came to 0.2.

In the case of U9A A33G A96G, the self-cleavage worked out at 0.75.

With G7A A24G A78U A95G A110G, the self-cleavage was determined as 0.09.

A5U C35U A67G: the self-cleavage was 0.68.

Regarding U9A U43A A64U U100C, the self-cleavage worked out at 1.79.

On to C6U A51U G106U, for which the self-cleavage is 0.05.

U9A C45G A90U: the self-cleavage is 1.07.

A5U G21A A66G: the self-cleavage is 1.87.

As to A5G U38C C46A A95G A116G, the self-cleavage came out at 1.15.

For the variant G8A A89G A98G A129G, the self-cleavage stood at 0.18.

In the case of A5U A52G A91U, the self-cleavage was 1.6.

Turning to A5G U39C G50A, the self-cleavage was 0.99.

Consider C6U A54G A60G, for which the self-cleavage was found to be 1.08.

Turning to A5U A62G A82U, the self-cleavage is 0.26.

A5G U12A U130C: the self-cleavage was 0.44.

For C6U A13U A66G A82G, the self-cleavage amounted to 0.23.

Turning to G8A A52G G73A A114G A126G, the self-cleavage was found to be 0.02.

For G8A A54G U100A, the self-cleavage was 1.14.

Turning to C6U A23G C34U U39C U43C U49C U70C U87C, the self-cleavage is 1.23.

As to A5U A91G U139A, the self-cleavage is 1.2.

Regarding G8U U49C A67G U70A A89G, the self-cleavage stood at 2.03.

For A5U A24G G53A, the self-cleavage was determined as 0.71.

Consider U9A A51U U57C A69G A90G A110U A118U, for which the self-cleavage was determined as 0.07.

U9A G80A A116G: the self-cleavage was determined as 0.11.

With G8U U9C A114C, the self-cleavage was found to be 0.02.

For the variant A5U A90G A116U U131C A140G, the self-cleavage amounted to 0.09.

For the variant A5G U70A U97C A114U, the self-cleavage is 0.

Turning to G8A A11U U122C, the self-cleavage was found to be 0.99.

Take A5U G104A A135G: the self-cleavage was determined as 0.15.

For the variant G7U U26A A66G U132C, the self-cleavage was determined as 0.77.

In the case of C6U U39C U132C, the self-cleavage was found to be 1.55.

Regarding U9A A30G U37A U103A A111U U127A U132C, the self-cleavage was 0.07.

Regarding A5G U38C A66G, the self-cleavage was determined as 1.54.

With A5U A64C G115A A118U, the self-cleavage came to 0.15.

Consider A5G U38C A62U A78G U124C, for which the self-cleavage was 0.2.

Turning to A5U A64G A117U, the self-cleavage was 0.44.

For U9A A23G A47G C85U A125G, the self-cleavage was 0.13.

In the case of A5U C17U A86G U87A A96G, the self-cleavage worked out at 0.98.

As to C6U A63U A90G A129G, the self-cleavage was 0.23.

On to A5G U38C A82U A91G C121U U132C, for which the self-cleavage was 0.21.

On to G7A A56G A116U, for which the self-cleavage worked out at 0.05.

Regarding U9A A11G A82G U87C A111G A114U, the self-cleavage was determined as 0.03.

Turning to A5U A11G A47G U49C A56G A95G, the self-cleavage was determined as 0.75.

Turning to U9A U87C A118C C128U, the self-cleavage came out at 0.34.

With A5G U103C U131C, the self-cleavage was 0.39.

As for U9A U38C A89U U124C, the self-cleavage turned out to be 1.03.

For the variant A5G U19A A64U, the self-cleavage is 0.82.

With C6U U43A U120G, the self-cleavage amounted to 0.83.

Consider U9A U37C A126G, for which the self-cleavage is 0.47.

Consider C6A A126G A135U, for which the self-cleavage was determined as 1.09.

For the variant A5G U9C A22G A27G A67G A117G A118G, the self-cleavage stood at 0.44.

As for A5G U57C A82G U102C, the self-cleavage was 0.91.

G7A A69G A92G: the self-cleavage turned out to be 2.49.

Consider A5U U43A U87C, for which the self-cleavage stood at 1.45.

Consider A5U A59G A116U A118G A135G, for which the self-cleavage was determined as 0.2.

Consider C6U U9C A60G A64U A91G, for which the self-cleavage worked out at 0.82.

With A5U A52G A90G, the self-cleavage was 1.66.

With G7A A22U U87C A118U, the self-cleavage was determined as 0.64.

On to U9A U19C A23G, for which the self-cleavage is 0.87.

With G7U A62U U127A, the self-cleavage worked out at 1.63.

For A5G U49C A126G, the self-cleavage is 1.21.

Turning to C6U A11G A67G U72C G75C A86G U97C, the self-cleavage amounted to 0.05.

As to A5G U19C U43A A51G U87C A90G, the self-cleavage came out at 0.27.

A5U A11U A23G C77U: the self-cleavage was 1.14.

Take G7A A18U U120C U124C: the self-cleavage came to 0.22.

Consider C6A A67G U70C A78G, for which the self-cleavage was determined as 0.15.

Regarding A5G U37C U70C, the self-cleavage worked out at 0.28.

In the case of U9A U19C A67G U103C U122C, the self-cleavage turned out to be 0.14.

Regarding U9A A63G A64G U97C U100C, the self-cleavage worked out at 2.25.

For G7U U57C A62G A64G A90G, the self-cleavage amounted to 0.76.

The values are drawn from the RNAGym collection of RNA variant scans (doi:10.7554/elife.90254).
